Results: the supplement of paper PMC8728848
About 410 targets per protein were measured; listed, in parts, are those with the strongest signals and a random draw of the rest.

The substances below were run on GlcNAc(b1-4)GlcNAc (assay: glycan array binding signal (z-score within array); higher = stronger binding). Conditions: glycan notation: IUPAC condensed, linker removed.
Summary of the method: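 Columns mapping to the same glycan were averaged after glycan names were converted to IUPAC-condensed notation. The data come from 3228 arrays in the Consortium for Functional Glycomics database, limited to those with an available protein sequence. Binding is reported as a within-array Z-score averaged across arrays of one protein sequence and across linkers.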

Row | Substance | glycan array binding signal (z-score)
1 | Thrombomodulin Extracellular (Homo sapiens) (chain not printed) | 1.96
2 | CLEC-2 (Homo sapiens) (chain not printed) | -0.093
3 | VWF (Homo sapiens) (chain not printed) | -0.308
